# Laboratory results taken from the supplement of paper PMC8728848.
# Some of the results follow.
# B1: diCBM40 CPF071 (Clostridium perfringens) (protein)
# chain: MAHHHHHHVGTGSNDDDDKSPDPMLSSLGEYKDINLESSNASNITYDLEKYKNLDEGTIVVRFNSKDSKIQSLLGISNSKTKNGYFNFYVTNSRVGFELRNQKNEGNTQNGTENLVHMYKDVALNDGDNTVALKIEKNKGYKLFLNGKMIKEVKDTNTKFLNNIENLDSAFIGKTNRYGQSNEYNFKGNIGFMNIYNEPLGDDYLLSKTGETKALNGSELGSGSGLSSLGEYKDINLESSNASNITYDLEKYKNLDEGTIVVRFNSKDSKIQSLLGISNSKTKNGYFNFYVTNSRVGFELRNQKNEGNTQNGTENLVHMYKDVALNDGDNTVALKIEKNKGYKLFLNGKMIKEVKDTNTKFLNNIENLDSAFIGKTNRYGQSNEYNFKGNIGFMNIYNEPLGDDYLLSKTGETK
# What was measured:
# Experiment in all cases: glycan array binding signal (z-score within array); higher = stronger binding
# Conditions in all cases: glycan notation: IUPAC condensed, linker removed
# Neu5Ac(a2-3)GalNAc = biological target: Neu5Ac(a2-3)GalNAc
# Method in brief: (§1)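 Columns mapping to the same glycan were averaged after glycan names were converted to IUPAC-condensed notation. The data come from 3228 arrays in the Consortium for Functional Glycomics database, limited to those with an available protein sequence. Binding is reported as a within-array Z-score averaged across arrays of one protein sequence and across linkers.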
# [1] = biological target: Neu5Ac(a2-3)GalNAc(b1-4)GlcNAc
# Method in brief: as §1
# [2] = biological target: Neu5Ac(a2-3)[GalNAc(b1-4)]Gal(b1-4)Glc
# Method in brief: as §1
# [3] = biological target: Neu5Ac(a2-3)[GalNAc(b1-4)]Gal(b1-4)GlcNAc
# Method in brief: as §1
# [4] = biological target: Neu5Ac(a2-3)[GalNAc(b1-4)]Gal(b1-4)GlcNAc(b1-3)GalNAc
# Method in brief: as §1
# [5] = biological target: Neu5Ac(a2-3)[Neu5Ac(a2-6)]GalNAc
# Method in brief: as §1
# Neu5Ac(a2-6)Gal = biological target: Neu5Ac(a2-6)Gal
# Method in brief: as §1
# [6] = biological target: Neu5Ac(a2-6)Gal(b1-3)GlcNAc(b1-3)[Gal(b1-4)GlcNAc(b1-6)]Gal(b1-4)Glc
# Method in brief: as §1
# Neu5Ac(a2-6)Gal(b1-4)Glc = biological target: Neu5Ac(a2-6)Gal(b1-4)Glc
# Method in brief: as §1
# [7] = biological target: Neu5Ac(a2-6)Gal(b1-4)GlcNAc
# Method in brief: as §1
# [8] = biological target: Neu5Ac(a2-6)Gal(b1-4)GlcNAc(b1-2)Man
# Method in brief: as §1
# [9] = biological target: Neu5Ac(a2-6)Gal(b1-4)GlcNAc(b1-2)Man(a1-3)Man(b1-4)GlcNAc(b1-4)GlcNAc
# Method in brief: as §1
# [10] = biological target: Neu5Ac(a2-6)Gal(b1-4)GlcNAc(b1-2)Man(a1-3)[Gal(b1-4)GlcNAc(b1-2)Man(a1-6)]Man(b1-4)GlcNAc(b1-4)GlcNAc
# Method in brief: as §1
# [11] = biological target: Neu5Ac(a2-6)Gal(b1-4)GlcNAc(b1-2)Man(a1-3)[GlcNAc(b1-4)][Neu5Ac(a2-6)Gal(b1-4)GlcNAc(b1-2)Man(a1-6)]Man(b1-4)GlcNAc(b1-4)GlcNAc
# Method in brief: as §1
# [12] = biological target: Neu5Ac(a2-6)Gal(b1-4)GlcNAc(b1-2)Man(a1-3)[Man(a1-6)]Man(b1-4)GlcNAc(b1-4)GlcNAc
# Method in brief: as §1
# [13] = biological target: Neu5Ac(a2-6)Gal(b1-4)GlcNAc(b1-2)Man(a1-3)[Neu5Ac(a2-3)Gal(b1-4)GlcNAc(b1-2)Man(a1-6)]Man(b1-4)GlcNAc(b1-4)GlcNAc
# Method in brief: as §1
# [14] = biological target: Neu5Ac(a2-6)Gal(b1-4)GlcNAc(b1-2)Man(a1-3)[Neu5Ac(a2-6)Gal(b1-4)GlcNAc(b1-2)Man(a1-6)]Man(b1-4)GlcNAc(b1-4)GlcNAc
# Method in brief: as §1
# [15] = biological target: Neu5Ac(a2-6)Gal(b1-4)GlcNAc(b1-2)Man(a1-3)[Neu5Ac(a2-6)Gal(b1-4)GlcNAc(b1-2)Man(a1-6)]Man(b1-4)GlcNAc(b1-4)[Fuc(a1-6)]GlcNAc
# Method in brief: as §1
# [16] = biological target: Neu5Ac(a2-6)Gal(b1-4)GlcNAc(b1-2)Man(a1-6)Man(b1-4)GlcNAc(b1-4)GlcNAc
# Method in brief: as §1
# [17] = biological target: Neu5Ac(a2-6)Gal(b1-4)GlcNAc(b1-2)Man(a1-6)[Gal(b1-4)GlcNAc(b1-2)Man(a1-3)]Man(b1-4)GlcNAc(b1-4)GlcNAc
# Method in brief: as §1
# [18] = biological target: Neu5Ac(a2-6)Gal(b1-4)GlcNAc(b1-2)Man(a1-6)[GlcNAc(b1-2)Man(a1-3)]Man(b1-4)GlcNAc(b1-4)GlcNAc
# Method in brief: as §1
# [19] = biological target: Neu5Ac(a2-6)Gal(b1-4)GlcNAc(b1-2)Man(a1-6)[Man(a1-3)]Man(b1-4)GlcNAc(b1-4)GlcNAc
# Method in brief: as §1
# [20] = biological target: Neu5Ac(a2-6)Gal(b1-4)GlcNAc(b1-2)[Neu5Ac(a2-6)Gal(b1-4)GlcNAc(b1-4)]Man(a1-3)[GlcNAc(b1-4)][Neu5Ac(a2-6)Gal(b1-4)GlcNAc(b1-2)[Neu5Ac(a2-6)Gal(b1-4)GlcNAc(b1-6)]Man(a1-6)]Man(b1-4)GlcNAc(b1-4)GlcNAc
# Method in brief: as §1
# [21] = biological target: Neu5Ac(a2-6)Gal(b1-4)GlcNAc(b1-2)[Neu5Ac(a2-6)Gal(b1-4)GlcNAc(b1-4)]Man(a1-3)[GlcNAc(b1-4)][Neu5Ac(a2-6)Gal(b1-4)GlcNAc(b1-4)Man(a1-6)]Man(b1-4)GlcNAc(b1-4)GlcNAc
# Method in brief: as §1
# [22] = biological target: Neu5Ac(a2-6)Gal(b1-4)GlcNAc(b1-2)[Neu5Ac(a2-6)Gal(b1-4)GlcNAc(b1-6)]Man(a1-6)[Neu5Ac(a2-6)Gal(b1-4)GlcNAc(b1-2)Man(a1-3)][GlcNAc(b1-4)]Man(b1-4)GlcNAc(b1-4)GlcNAc
# Method in brief: as §1
# [23] = biological target: Neu5Ac(a2-6)Gal(b1-4)GlcNAc(b1-3)Gal(b1-3)GlcNAc
# Method in brief: as §1
# [24] = biological target: Neu5Ac(a2-6)Gal(b1-4)GlcNAc(b1-3)Gal(b1-4)GlcNAc
# Method in brief: as §1
# [25] = biological target: Neu5Ac(a2-6)Gal(b1-4)GlcNAc(b1-3)Gal(b1-4)GlcNAc(b1-2)Man(a1-3)[Neu5Ac(a2-6)Gal(b1-4)GlcNAc(b1-3)Gal(b1-4)GlcNAc(b1-2)Man(a1-6)]GalNAc
# Method in brief: as §1
# [26] = biological target: Neu5Ac(a2-6)Gal(b1-4)GlcNAc(b1-3)Gal(b1-4)GlcNAc(b1-3)Gal(b1-4)GlcNAc
# Method in brief: as §1
# [27] = biological target: Neu5Ac(a2-6)Gal(b1-4)GlcNAc(b1-3)Gal(b1-4)GlcNAc(b1-3)Gal(b1-4)GlcNAc(b1-2)Man(a1-3)[Neu5Ac(a2-6)Gal(b1-4)GlcNAc(b1-3)Gal(b1-4)GlcNAc(b1-3)Gal(b1-4)GlcNAc(b1-2)Man(a1-6)]GalNAc
# Method in brief: as §1
# [28] = biological target: Neu5Ac(a2-6)Gal(b1-4)GlcNAc(b1-3)Gal(b1-4)GlcNAc(b1-3)GalNAc
# Method in brief: as §1
# [29] = biological target: Neu5Ac(a2-6)Gal(b1-4)GlcNAc(b1-3)Gal(b1-4)GlcNAc(b1-3)[Neu5Ac(a2-6)Gal(b1-4)GlcNAc(b1-3)Gal(b1-4)GlcNAc(b1-6)]GalNAc
# Method in brief: as §1
# [30] = biological target: Neu5Ac(a2-6)Gal(b1-4)GlcNAc(b1-3)Gal(b1-4)GlcNAc(b1-6)[Gal(b1-3)]GalNAc
# Method in brief: as §1
# [31] = biological target: Neu5Ac(a2-6)Gal(b1-4)GlcNAc(b1-3)Gal(b1-4)[Fuc(a1-3)]GlcNAc(b1-3)Gal(b1-4)[Fuc(a1-3)]GlcNAc
# Method in brief: as §1
# [32] = biological target: Neu5Ac(a2-6)Gal(b1-4)GlcNAc(b1-3)GalNAc
# Method in brief: as §1
# [33] = biological target: Neu5Ac(a2-6)Gal(b1-4)GlcNAc(b1-3)[Neu5Ac(a2-6)Gal(b1-4)GlcNAc(b1-6)]GalNAc
# Method in brief: as §1
# [34] = biological target: Neu5Ac(a2-6)Gal(b1-4)GlcNAc(b1-6)GalNAc
# Method in brief: as §1
# [35] = biological target: Neu5Ac(a2-6)Gal(b1-4)GlcNAc(b1-6)[Gal(b1-3)GlcNAc(b1-3)]Gal(b1-4)Glc
# Method in brief: as §1
# [36] = biological target: Neu5Ac(a2-6)Gal(b1-4)GlcNAc(b1-6)[Gal(b1-3)]GalNAc
# Method in brief: as §1
# [37] = biological target: Neu5Ac(a2-6)Gal(b1-4)GlcNAc6S
# Method in brief: as §1
# Neu5Ac(a2-6)GalNAc = biological target: Neu5Ac(a2-6)GalNAc
# Method in brief: as §1
# [38] = biological target: Neu5Ac(a2-6)GalNAc(b1-4)GlcNAc
# Method in brief: as §1
# [39] = biological target: Neu5Ac(a2-6)GalNAc(b1-4)GlcNAc6S
# Method in brief: as §1
# [40] = biological target: Neu5Ac(a2-6)GlcNAc(b1-4)GlcNAc
# Method in brief: as §1
# [41] = biological target: Neu5Ac(a2-6)GlcNAc(b1-4)GlcNAc(b1-4)GlcNAc
# Method in brief: as §1
binder,measurement,setting,value
B1,glycan array binding signal (z-score),Neu5Ac(a2-3)GalNAc,-0.325
same,glycan array binding signal (z-score),[1],-0.019
same,glycan array binding signal (z-score),[2],-0.239
same,glycan array binding signal (z-score),[3],-0.192
same,glycan array binding signal (z-score),[4],-0.223
same,glycan array binding signal (z-score),[5],-0.291
same,glycan array binding signal (z-score),Neu5Ac(a2-6)Gal,0.322
same,glycan array binding signal (z-score),[6],-0.319
same,glycan array binding signal (z-score),Neu5Ac(a2-6)Gal(b1-4)Glc,0.183
same,glycan array binding signal (z-score),[7],-0.146
same,glycan array binding signal (z-score),[8],-0.324
same,glycan array binding signal (z-score),[9],0.015
same,glycan array binding signal (z-score),[10],0.229
same,glycan array binding signal (z-score),[11],-0.31
same,glycan array binding signal (z-score),[12],-0.195
same,glycan array binding signal (z-score),[13],-0.278
same,glycan array binding signal (z-score),[14],0.49
same,glycan array binding signal (z-score),[15],0.213
same,glycan array binding signal (z-score),[16],0.02
same,glycan array binding signal (z-score),[17],-0.056
same,glycan array binding signal (z-score),[18],-0.225
same,glycan array binding signal (z-score),[19],-0.285
same,glycan array binding signal (z-score),[20],-0.127
same,glycan array binding signal (z-score),[21],-0.184
same,glycan array binding signal (z-score),[22],-0.3
same,glycan array binding signal (z-score),[23],-0.241
same,glycan array binding signal (z-score),[24],-0.102
same,glycan array binding signal (z-score),[25],-0.255
same,glycan array binding signal (z-score),[26],0.065
same,glycan array binding signal (z-score),[27],-0.118
same,glycan array binding signal (z-score),[28],-0.078
same,glycan array binding signal (z-score),[29],-0.291
same,glycan array binding signal (z-score),[30],-0.188
same,glycan array binding signal (z-score),[31],-0.154
same,glycan array binding signal (z-score),[32],-0.227
same,glycan array binding signal (z-score),[33],-0.197
same,glycan array binding signal (z-score),[34],-0.312
same,glycan array binding signal (z-score),[35],-0.316
same,glycan array binding signal (z-score),[36],-0.241
same,glycan array binding signal (z-score),[37],0.551
same,glycan array binding signal (z-score),Neu5Ac(a2-6)GalNAc,-0.26
same,glycan array binding signal (z-score),[38],-0.326
same,glycan array binding signal (z-score),[39],-0.255
same,glycan array binding signal (z-score),[40],-0.209
same,glycan array binding signal (z-score),[41],-0.17
